Here are results for 63 sequences from article PMC12820563.

This is one part of the list. The list includes weakly bound sequences.

The experiment addresses T1, MBP-FoxP3dN (UniProt Q99JB6).
T1 sequence: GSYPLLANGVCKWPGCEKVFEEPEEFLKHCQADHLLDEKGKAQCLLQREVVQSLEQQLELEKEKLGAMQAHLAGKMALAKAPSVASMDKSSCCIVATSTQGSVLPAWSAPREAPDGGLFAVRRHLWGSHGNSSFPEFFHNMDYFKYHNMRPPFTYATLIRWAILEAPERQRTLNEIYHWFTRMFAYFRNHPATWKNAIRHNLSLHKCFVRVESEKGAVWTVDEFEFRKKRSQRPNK
The experiment can be described thus: PD-seq (MBP pull-down with sequencing). Conditions: 20 mM Tris-HCl pH 7.5, 100 mM NaCl, 1.5 mM MgCl2, 0.4 uM protein, 0.1 uM dsDNA library, 30 min, room temperature, amylose pull-down; high values mean tight binding; double strand, one strand shown.
Turning to “GATGATTGTTCTCCCAGCTGATGAATTTTGGCGTTCGAGTAAACAAATTTTCCTAATCTTTCTGTTCAAGCGCCATCTAC”, the binding signal (RPM ratio (pull-down/input)) came to 1.58.

On to “GATGATTGTTCTCCCAGCTGATGAATTATCTCATTCGAGTAAACAAATTTTCCTAATCTTTCTGTTCAAGCGCCATCTAC”, for which the binding signal (RPM ratio (pull-down/input)) was 0.381.

On to “GATGATTGTTCTCCCAGCTGATGAATTCTTTATATCGAGTAAACAAATTTTCCTAATCTTTCTGTTCAAGCGCCATCTAC”, for which the binding signal (RPM ratio (pull-down/input)) worked out at 0.357. In the case of “GATGATTGTTCTCCCAGCTGATGAATTCACAAAGTCGAGTAAACAAATTTTCCTAATCTTTCTGTTCAAGCGCCATCTAC” it was 0.188. In the case of “GATGATTGTTCTCCCAGCTGATGAATTGGTATTGTCGAGTAAACAAATTTTCCTAATCTTTCTGTTCAAGCGCCATCTAC” it was 2.4; in that of “GATGATTGTTCTCCCAGCTGATGAATTTTTCGAGTCGAGTAAACAAATTTTCCTAATCTTTCTGTTCAAGCGCCATCTAC”, 0.235; in that of “GATGATTGTTCTCCCAGCTGATGAATTAGAAGTTTCGAGTAAACAAATTTTCCTAATCTTTCTGTTCAAGCGCCATCTAC”, 0.315. Under “GATGATTGTTCTCCCAGCTGATGAATTGAATCGGTCGAGTAAACAAATTTTCCTAATCTTTCTGTTCAAGCGCCATCTAC” stands 0.249. With “GATGATTGTTCTCCCAGCTGATGAATTTTGCCGTTCGAGTAAACAAATTTTCCTAATCTTTCTGTTCAAGCGCCATCTAC”, the binding signal (RPM ratio (pull-down/input)) stood at 2.17.

For “GATGATTGTTCTCCCAGCTGATGAATTTTTTCTCTCGAGTAAACAAATTTTCCTAATCTTTCTGTTCAAGCGCCATCTAC”, the binding signal (RPM ratio (pull-down/input)) was determined as 0.175. As for “GATGATTGTTCTCCCAGCTGATGAATTGCTACTTTCGAGTAAACAAATTTTCCTAATCTTTCTGTTCAAGCGCCATCTAC”, the binding signal (RPM ratio (pull-down/input)) amounted to 0.877.

With “GATGATTGTTCTCCCAGCTGATGAATTTATAGTTTCGAGTAAACAAATTTTCCTAATCTTTCTGTTCAAGCGCCATCTAC”, the binding signal (RPM ratio (pull-down/input)) is 1.54. For “GATGATTGTTCTCCCAGCTGATGAATTGAATACGTCGAGTAAACAAATTTTCCTAATCTTTCTGTTCAAGCGCCATCTAC”, the binding signal (RPM ratio (pull-down/input)) came out at 0.489. In the case of “GATGATTGTTCTCCCAGCTGATGAATTGCTTGCCTCGAGTAAACAAATTTTCCTAATCTTTCTGTTCAAGCGCCATCTAC” it was 1.14; in that of “GATGATTGTTCTCCCAGCTGATGAATTGATTTTTTCGAGTAAACAAATTTTCCTAATCTTTCTGTTCAAGCGCCATCTAC”, 1.07; in that of “GATGATTGTTCTCCCAGCTGATGAATTAAACCTTTCGAGTAAACAAATTTTCCTAATCTTTCTGTTCAAGCGCCATCTAC”, 0.318. In the case of “GATGATTGTTCTCCCAGCTGATGAATTTACACTCTCGAGTAAACAAATTTTCCTAATCTTTCTGTTCAAGCGCCATCTAC”, the binding signal (RPM ratio (pull-down/input)) came to 0.71. Under “GATGATTGTTCTCCCAGCTGATGAATTGGCGAATTCGAGTAAACAAATTTTCCTAATCTTTCTGTTCAAGCGCCATCTAC” stands 0.898.

Turning to “GATGATTGTTCTCCCAGCTGATGAATTGCCTTGTTCGAGTAAACAAATTTTCCTAATCTTTCTGTTCAAGCGCCATCTAC”, the binding signal (RPM ratio (pull-down/input)) was 0.847. Under “GATGATTGTTCTCCCAGCTGATGAATTTAAGCAATCGAGTAAACAAATTTTCCTAATCTTTCTGTTCAAGCGCCATCTAC” stands 2.48; under “GATGATTGTTCTCCCAGCTGATGAATTCAAGAGTTCGAGTAAACAAATTTTCCTAATCTTTCTGTTCAAGCGCCATCTAC”, 0.318. In the case of “GATGATTGTTCTCCCAGCTGATGAATTCACTCTATCGAGTAAACAAATTTTCCTAATCTTTCTGTTCAAGCGCCATCTAC” it was 0.353; in that of “GATGATTGTTCTCCCAGCTGATGAATTCGCCTGCTCGAGTAAACAAATTTTCCTAATCTTTCTGTTCAAGCGCCATCTAC”, 0.699; in that of “GATGATTGTTCTCCCAGCTGATGAATTTCTGTTATCGAGTAAACAAATTTTCCTAATCTTTCTGTTCAAGCGCCATCTAC”, 1.07. Under “GATGATTGTTCTCCCAGCTGATGAATTGCTCTGTTCGAGTAAACAAATTTTCCTAATCTTTCTGTTCAAGCGCCATCTAC” stands 0.567; under “GATGATTGTTCTCCCAGCTGATGAATTACTCGGCTCGAGTAAACAAATTTTCCTAATCTTTCTGTTCAAGCGCCATCTAC”, 0.234; under “GATGATTGTTCTCCCAGCTGATGAATTCAGTGCATCGAGTAAACAAATTTTCCTAATCTTTCTGTTCAAGCGCCATCTAC”, 1.37. For the sequence “GATGATTGTTCTCCCAGCTGATGAATTGAACTTCTCGAGTAAACAAATTTTCCTAATCTTTCTGTTCAAGCGCCATCTAC”, the binding signal (RPM ratio (pull-down/input)) was 0.284. Take “GATGATTGTTCTCCCAGCTGATGAATTCTTCACATCGAGTAAACAAATTTTCCTAATCTTTCTGTTCAAGCGCCATCTAC”: the binding signal (RPM ratio (pull-down/input)) is 0.332. In the case of “GATGATTGTTCTCCCAGCTGATGAATTCGGAAAATCGAGTAAACAAATTTTCCTAATCTTTCTGTTCAAGCGCCATCTAC” it was 0.193; in that of “GATGATTGTTCTCCCAGCTGATGAATTGCGGTTTTCGAGTAAACAAATTTTCCTAATCTTTCTGTTCAAGCGCCATCTAC”, 1.42; in that of “GATGATTGTTCTCCCAGCTGATGAATTGACCGCGTCGAGTAAACAAATTTTCCTAATCTTTCTGTTCAAGCGCCATCTAC”, 0.46. In the case of “GATGATTGTTCTCCCAGCTGATGAATTGCGCACATCGAGTAAACAAATTTTCCTAATCTTTCTGTTCAAGCGCCATCTAC” it was 1.71; in that of “GATGATTGTTCTCCCAGCTGATGAATTCCATCTATCGAGTAAACAAATTTTCCTAATCTTTCTGTTCAAGCGCCATCTAC”, 0.555. For “GATGATTGTTCTCCCAGCTGATGAATTCTCCCACTCGAGTAAACAAATTTTCCTAATCTTTCTGTTCAAGCGCCATCTAC”, the binding signal (RPM ratio (pull-down/input)) was 0.246.

With “GATGATTGTTCTCCCAGCTGATGAATTCTGGGCTTCGAGTAAACAAATTTTCCTAATCTTTCTGTTCAAGCGCCATCTAC”, the binding signal (RPM ratio (pull-down/input)) turned out to be 0.324. Under “GATGATTGTTCTCCCAGCTGATGAATTAAATGCCTCGAGTAAACAAATTTTCCTAATCTTTCTGTTCAAGCGCCATCTAC” stands 1.19; under “GATGATTGTTCTCCCAGCTGATGAATTTTACATTTCGAGTAAACAAATTTTCCTAATCTTTCTGTTCAAGCGCCATCTAC”, 0.435. In the case of “GATGATTGTTCTCCCAGCTGATGAATTCTATCGCTCGAGTAAACAAATTTTCCTAATCTTTCTGTTCAAGCGCCATCTAC”, the binding signal (RPM ratio (pull-down/input)) came to 0.497.

With “GATGATTGTTCTCCCAGCTGATGAATTTTCAGTGTCGAGTAAACAAATTTTCCTAATCTTTCTGTTCAAGCGCCATCTAC”, the binding signal (RPM ratio (pull-down/input)) came to 0.378. As to “GATGATTGTTCTCCCAGCTGATGAATTGCCAGAATCGAGTAAACAAATTTTCCTAATCTTTCTGTTCAAGCGCCATCTAC”, the binding signal (RPM ratio (pull-down/input)) amounted to 0.291. In the case of “GATGATTGTTCTCCCAGCTGATGAATTCAGGATATCGAGTAAACAAATTTTCCTAATCTTTCTGTTCAAGCGCCATCTAC” it was 0.322; in that of “GATGATTGTTCTCCCAGCTGATGAATTACGTTTCTCGAGTAAACAAATTTTCCTAATCTTTCTGTTCAAGCGCCATCTAC”, 1.21; in that of “GATGATTGTTCTCCCAGCTGATGAATTATGATATTCGAGTAAACAAATTTTCCTAATCTTTCTGTTCAAGCGCCATCTAC”, 2.74.

Regarding “GATGATTGTTCTCCCAGCTGATGAATTAAGCTAATCGAGTAAACAAATTTTCCTAATCTTTCTGTTCAAGCGCCATCTAC”, the binding signal (RPM ratio (pull-down/input)) was 0.302. In the case of “GATGATTGTTCTCCCAGCTGATGAATTGAGTCCATCGAGTAAACAAATTTTCCTAATCTTTCTGTTCAAGCGCCATCTAC”, the binding signal (RPM ratio (pull-down/input)) turned out to be 0.356. In the case of “GATGATTGTTCTCCCAGCTGATGAATTAGCTTGCTCGAGTAAACAAATTTTCCTAATCTTTCTGTTCAAGCGCCATCTAC” it was 2.54; in that of “GATGATTGTTCTCCCAGCTGATGAATTCCCGTTCTCGAGTAAACAAATTTTCCTAATCTTTCTGTTCAAGCGCCATCTAC”, 0.361. In the case of “GATGATTGTTCTCCCAGCTGATGAATTAACGTCGTCGAGTAAACAAATTTTCCTAATCTTTCTGTTCAAGCGCCATCTAC” it was 0.533; in that of “GATGATTGTTCTCCCAGCTGATGAATTATTAAATTCGAGTAAACAAATTTTCCTAATCTTTCTGTTCAAGCGCCATCTAC”, 0.323. Under “GATGATTGTTCTCCCAGCTGATGAATTTCGACAATCGAGTAAACAAATTTTCCTAATCTTTCTGTTCAAGCGCCATCTAC” stands 0.506; under “GATGATTGTTCTCCCAGCTGATGAATTAAGGACTTCGAGTAAACAAATTTTCCTAATCTTTCTGTTCAAGCGCCATCTAC”, 0.412; under “GATGATTGTTCTCCCAGCTGATGAATTGCCCGCTTCGAGTAAACAAATTTTCCTAATCTTTCTGTTCAAGCGCCATCTAC”, 0.528. As for “GATGATTGTTCTCCCAGCTGATGAATTCTTGCTATCGAGTAAACAAATTTTCCTAATCTTTCTGTTCAAGCGCCATCTAC”, the binding signal (RPM ratio (pull-down/input)) was found to be 0.663. Under “GATGATTGTTCTCCCAGCTGATGAATTGGTGTCTTCGAGTAAACAAATTTTCCTAATCTTTCTGTTCAAGCGCCATCTAC” stands 1.2; under “GATGATTGTTCTCCCAGCTGATGAATTTACATTATCGAGTAAACAAATTTTCCTAATCTTTCTGTTCAAGCGCCATCTAC”, 0.87; under “GATGATTGTTCTCCCAGCTGATGAATTGCACCGCTCGAGTAAACAAATTTTCCTAATCTTTCTGTTCAAGCGCCATCTAC”, 0.729. On to “GATGATTGTTCTCCCAGCTGATGAATTGGTCGGCTCGAGTAAACAAATTTTCCTAATCTTTCTGTTCAAGCGCCATCTAC”, for which the binding signal (RPM ratio (pull-down/input)) was determined as 0.281. On to “GATGATTGTTCTCCCAGCTGATGAATTCCAGCCATCGAGTAAACAAATTTTCCTAATCTTTCTGTTCAAGCGCCATCTAC”, for which the binding signal (RPM ratio (pull-down/input)) was 0.921. In the case of “GATGATTGTTCTCCCAGCTGATGAATTATCGGCCTCGAGTAAACAAATTTTCCTAATCTTTCTGTTCAAGCGCCATCTAC” it was 0.423; in that of “GATGATTGTTCTCCCAGCTGATGAATTGGAGGCCTCGAGTAAACAAATTTTCCTAATCTTTCTGTTCAAGCGCCATCTAC”, 0.681; in that of “GATGATTGTTCTCCCAGCTGATGAATTACCTATTTCGAGTAAACAAATTTTCCTAATCTTTCTGTTCAAGCGCCATCTAC”, 0.405. Consider “GATGATTGTTCTCCCAGCTGATGAATTTCGAAAATCGAGTAAACAAATTTTCCTAATCTTTCTGTTCAAGCGCCATCTAC”, for which the binding signal (RPM ratio (pull-down/input)) was 0.155.
